The source of these data is the supplement of paper PMC3334620.

Whole data set: some 33,000 sequences, median “E-score (-0.5 to 0.5)” near -0.035, cut for the highest 2% near 0.35. Some of the results follow.

The test has as its target T1, Pdr3 (UniProt P33200).
T1 sequence: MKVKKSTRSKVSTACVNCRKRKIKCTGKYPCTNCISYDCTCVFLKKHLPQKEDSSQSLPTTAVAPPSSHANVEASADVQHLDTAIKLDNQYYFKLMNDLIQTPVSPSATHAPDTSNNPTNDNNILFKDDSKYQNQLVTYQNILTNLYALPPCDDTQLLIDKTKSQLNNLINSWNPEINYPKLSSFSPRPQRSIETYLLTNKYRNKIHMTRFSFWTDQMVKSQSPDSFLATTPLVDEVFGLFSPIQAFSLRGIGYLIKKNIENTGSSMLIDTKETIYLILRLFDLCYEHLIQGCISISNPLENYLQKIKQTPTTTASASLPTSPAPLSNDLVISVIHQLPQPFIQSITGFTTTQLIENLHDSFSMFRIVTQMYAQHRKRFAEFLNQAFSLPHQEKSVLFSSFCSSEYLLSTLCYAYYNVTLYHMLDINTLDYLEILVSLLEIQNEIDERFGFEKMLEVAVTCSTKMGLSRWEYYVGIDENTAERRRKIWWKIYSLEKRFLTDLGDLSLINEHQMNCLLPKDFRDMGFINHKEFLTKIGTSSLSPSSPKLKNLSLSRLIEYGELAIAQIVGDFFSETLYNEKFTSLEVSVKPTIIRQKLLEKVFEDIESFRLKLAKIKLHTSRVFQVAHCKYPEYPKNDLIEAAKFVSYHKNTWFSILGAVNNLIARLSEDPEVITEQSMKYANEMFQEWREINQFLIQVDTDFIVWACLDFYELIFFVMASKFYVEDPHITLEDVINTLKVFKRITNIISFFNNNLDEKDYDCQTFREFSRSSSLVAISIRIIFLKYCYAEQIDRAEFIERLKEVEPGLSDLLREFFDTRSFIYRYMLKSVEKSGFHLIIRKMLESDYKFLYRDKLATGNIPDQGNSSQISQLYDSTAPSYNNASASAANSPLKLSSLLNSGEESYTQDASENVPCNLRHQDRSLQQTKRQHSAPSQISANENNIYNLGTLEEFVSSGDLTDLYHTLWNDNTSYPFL
Kind of test: PBM E-score (8-mer binding enrichment) (E-score (-0.5 to 0.5)); higher = stronger / more preferred TF binding; most listed sequences are background and not binding sites. The settings on record: protein concentration: 200 nM; construct: GST-full length. The procedure, abridged: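 Universal all-10-mer Agilent arrays, double-stranded by primer extension on fresh or once-stripped slides, were probed with about 100-200 nM GST-tagged yeast transcription factors made by PURExpress. Fluorescent anti-GST detected bound protein, and masliner normalised the scans. E-scores from the Universal PBM Analysis Suite were given to each ungapped eight-base word pooled with its reverse complement.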
Consider ACGAAGAG, for which the “PBM E-score” value was -0.128. Regarding AGAGCTAA, the “PBM E-score” value is -0.231. As for ACGCTACT, the “PBM E-score” value was determined as 0.0666. The result for ATTTATAA reads 0.141; that for CAGGCAGC, -0.134. Turning to AGATCATC, the “PBM E-score” value was determined as 0.0153.

Turning to ATCTAATC, the “PBM E-score” value turned out to be 0.087. Turning to ACAGAAGG, the “PBM E-score” value was -0.101. For CTTGAGTA, the “PBM E-score” value is -0.0589. In the case of CTAGTAAG, the “PBM E-score” value was -0.125. The result for GACCCGTA reads -0.0759; that for CTGAGTGC, -0.138. The result for CTACTAAA reads -0.0977. For the sequence CTTGGTTA, the “PBM E-score” value was -0.0398. Consider GCGGGCGA, for which the “PBM E-score” value worked out at 0.297.

With AAGTTTTG, the “PBM E-score” value turned out to be 0.0311. Take CGAAACGA: the “PBM E-score” value was -0.122.

Take CAGTCGGA: the “PBM E-score” value worked out at 0.174.

On to AGATCTAC, for which the “PBM E-score” value is -0.128. Next, ATAGATGC: -0.023. As for GTAAAGCA, the “PBM E-score” value came out at 0.0229. Consider ATAAATAC, for which the “PBM E-score” value is 0.176. Turning to CCGGGCCA, the “PBM E-score” value was determined as 0.346.

Turning to AGTTCGCC, the “PBM E-score” value was determined as 0.115. In the case of ATGTGGCA, the “PBM E-score” value is -0.0762. Regarding AATGCTAG, the “PBM E-score” value was -0.0917. The result for CGGACGGC reads 0.244; that for AAGCGATA, -0.189.

Turning to AAGTAATG, the “PBM E-score” value worked out at 0.0905. The result for GTCAATAA reads -0.222; that for TATGATGA, -0.0562; that for ACCTTATG, -0.202. In the case of CGCTACAA, the “PBM E-score” value was -0.121. Regarding CGGAGATC, the “PBM E-score” value is 0.302. As to CAACTCTA, the “PBM E-score” value is -0.0836.

With ATGTAGTG, the “PBM E-score” value was -0.0998. In the case of GTTATAAA, the “PBM E-score” value is -0.0728. Next, CTCACAGA: -0.102; AGTTGCAG: -0.208. Next, GTTAGTAA: -0.222.

As to AAGACTTG, the “PBM E-score” value was -0.23. The result for AGTGGTGA reads 0.0718; that for AGCCATAG, -0.18; that for CCGGACGC, 0.33. With ACAAAACA, the “PBM E-score” value is -0.0438. As for CCTTTACC, the “PBM E-score” value is -0.145. As to CGATTGCG, the “PBM E-score” value was 0.202.

As to ACTTGATA, the “PBM E-score” value is -0.0264. Turning to CTGCGCCC, the “PBM E-score” value is -0.21.

As to GAGCCATC, the “PBM E-score” value was -0.174. Consider CCACGAAA, for which the “PBM E-score” value is -0.0437. Next, CCCTCCCG: 0.187; CGACTCCG: 0.332; TGGGCAAA: -0.033.

Regarding AAATAATC, the “PBM E-score” value is -0.00849.

As for ACGCGTTC, the “PBM E-score” value amounted to 0.0909. In the case of AAAGCGCA, the “PBM E-score” value is -0.0202. In the case of CTAAAATA, the “PBM E-score” value was -0.227. As for CTTCCCCC, the “PBM E-score” value was -0.252.

As for ATGCATAC, the “PBM E-score” value is -0.182. Take CATGCCAA: the “PBM E-score” value is -0.115. Turning to ATGAAAGA, the “PBM E-score” value is -0.0862. Next, AACTCCCG: 0.274; TTACTCAA: -0.0468; ACTCGGCC: 0.204. Take AGGCCACT: the “PBM E-score” value is 0.00259. In the case of TCGCAGAA, the “PBM E-score” value is -0.21. For AATAGTCT, the “PBM E-score” value was -0.249. Consider TACCAAGA, for which the “PBM E-score” value was -0.00658.

In the case of ATGTCGGC, the “PBM E-score” value is -0.0499.

As for GCAGTTGA, the “PBM E-score” value is -0.00471. On to CCCCAGCA, for which the “PBM E-score” value is -0.0718. AACTGCCC: the “PBM E-score” value was -0.0793.

For the sequence ACAGTTTC, the “PBM E-score” value came to 0.122. As to CCAAAACG, the “PBM E-score” value was -0.134. For TACACCAA, the “PBM E-score” value was -0.151. As to CCACAGGA, the “PBM E-score” value is -0.15.

For the sequence AAGAGCCC, the “PBM E-score” value was -0.00683.

For the sequence AGTCCAAA, the “PBM E-score” value is -0.165.

In the case of ACTTCAAT, the “PBM E-score” value was determined as 0.147.

For the sequence ATTGTTGC, the “PBM E-score” value is -0.0778. As for CTGGCGTC, the “PBM E-score” value was -0.0815. On to CACCCGAC, for which the “PBM E-score” value amounted to 0.153. The result for ATTCCCTA reads 0.0152; that for CCTTTTCA, -0.118; that for AAGCGCCA, -0.354.
